Source: PubChem BioAssay (NCI)
Where “and” joins values, the source holds several entries; their conditions need not be identical. Equal entries are not always repeated.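 Dose response: 5 concentrations. Exposure: 48 h. Format: 96-well plates. Endpoint: linear interpolation; highest concentration if not reached. The concentration for 50% growth inhibition is given as GI50. TGI denotes the concentration required for complete inhibition of growth.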

Test system: NCI-H322M lung
Test: NCI tumour cell line growth inhibition, 48 h

SMILES | TGI | GI50
C=CCC(O)c1cc(OC)ccc1OC (stereo not given) | > 100 µM | 
O=c1[nH]nc(Cc2ccc(Cl)cc2)n1CCO | > 100 µM | 
COc1ccccc1CNC(=O)/C=C/c1ccc(O)c(O)c1 | > 100 µM | > 100 µM
O=C(O)c1ccc(C2=Nc3cccc4cccc(c34)N2)cc1 | > 100 µM | 
C#C[C@@H](OC(=O)c1ccc([N+](=O)[O-])cc1)[C@@H]1C[C@H]2O[C@@H]([C@H](C/C=C/CC)OC(=O)c3ccc([N+](=O)[O-])cc3)C[C@H]2O1 | > 100 µM | 
CCOC(=O)n1ccc2c(C(=O)OC)c(C(=O)OC)cc(/C(=C/C(=O)OC)C(=O)OC)c21 | > 100 µM | 
C=CC(=O)OCCCS(=O)(=O)[O-].C=CC(=O)OCCCS(=O)(=O)[O-].NC1CCCCC1N.[Pt+4] | > 25 µM | > 25 µM
O=C1/C(=C\c2cccc(Oc3ccccc3)c2)SC(c2ccccc2)N1Cc1ccccc1 (stereo not given) | > 100 µM | 
NC1=C(/C(N)=N/O)C(c2ccccc2)c2ccc3ccccc3c2O1 (stereo not given) | > 100 µM | 0.638 µM
CC(C(=O)c1ccc(O)cc1)C1(O)C(=O)Nc2c(Cl)cc(Cl)cc21 (stereo not given) | > 100 µM | 
CC1=CC[C@@H]2C(=O)C=CC=C[C@H]12.[C-]#[O+].[C-]#[O+].[C-]#[O+].[Fe] | > 100 µM | 86.9 µM
O=c1c2cc(Br)ccc2n(C2OC(CO)C(O)C(O)C2O)c(=S)n1-c1ccccc1 (stereo not given) | > 100 µM | 
NC(=S)NN=C1Cc2ccccc2C1 | > 100 µM | 
COc1ccc(/C=C2/C(=O)N(/C=C3\C(=O)Oc4ccccc4C3=O)C(=NC(C)=O)N2C)cc1OC | > 100 µM | 
Cc1cc(O)cc(-c2nn(C)cc2-c2cc(N3CCOCC3)nc(-c3cccnc3)n2)c1 | > 100 µM | 6.27 µM
Fc1cccc(-c2nc(-c3c[nH]c4ncccc34)cs2)c1 | > 100 µM | 77.9 µM
CC(C)C(=O)CC(c1ccc(Br)cc1)N1N=C(C(C)C)CC1c1ccc(Br)cc1 (stereo not given) | > 100 µM | 
NC(=S)N/N=C1/C(=O)N(c2ccccc2)C(=O)C1C(=O)Nc1ccccc1 (stereo not given) | > 100 µM | 
COC(=O)C(Br)(C(=O)OC)C(Br)C(Br)C(Br)c1ccccc1 (stereo not given) | 27.7 µM | 14.3 µM
CN(CCCNC(=O)c1nn(-c2ccccc2)c2c1Cc1ccccc1-2)CCCNC(=O)c1nn(-c2ccccc2)c2c1Cc1ccccc1-2 | 3.22 µM | 
COc1cc(CO)cc2c1[nH]c1ccccc12 | > 25 µM | 
NC(CCSCCF)C(=O)O (stereo not given) | > 100 µM | 
Cn1c(=S)c2[nH]c(SCc3cccnc3)nc2n(C)c1=O | > 100 µM | 
FC(F)(F)c1nc2c(ccc3[nH]c4c(-c5ccccc5)nccc4c32)[nH]1 | > 100 µM | 
Oc1c(O)c(Cc2ccccc2)c(Cc2ccccc2)c(Cc2ccccc2)c1Cc1ccccc1 | > 10 µM | 

SMILES | TGI | GI50
C=C(C)C1Cc2cc(C(C)=O)ccc2O1 (stereo not given) | > 100 µM | 
O=S(C(c1ccccc1)=P(c1ccccc1)(c1ccccc1)c1ccccc1)c1ccc(Cl)cc1 (stereo not given) | > 100 µM | 
CN(C)c1ccc(C2=C([O-])c3cc(-[n+]4ccccc4)ccc3C2=O)cc1 | > 100 µM | 
CNC(=O)NCCCCC(NC(=O)OCc1ccccc1)C(=O)OCc1ccccc1 (stereo not given) | > 100 µM | 
Cc1ccc(C2SCc3nc4ccccc4n32)cc1 (stereo not given) | > 100 µM | 
Cc1[nH]c2[nH]c(=S)nc(NC(N)=S)c2c1Cc1ccccc1 | > 100 µM | 
Cc1ccc(Nn2c(SCC(=O)Nc3nc(-c4ccccc4)cs3)nc(C)c2C)cc1 | > 100 µM | 10.2 µM
COc1ccc(N2C(=O)C3c4[nH]c5ccc(OC)cc5c4C4CCC(c5ccccc5)CC4C3C2=O)cc1 (stereo not given) | > 100 µM | 
CCOC(=O)C1=C(Nc2cccc3ccccc23)OCC1=O | > 100 µM | 
Nc1nc(N)c2cc(S(=O)(=O)c3ccccc3)ccc2n1 | > 100 µM | 4.02 µM
C=CC(=O)N1CCC(CNc2ncnc(N)c2-c2ccc(Oc3ccccc3)cc2)CC1 | > 100 µM | 21.4 µM
CC(C)CCCC(C)[C@H]1CCC2C3CC=C4C[C@@H](OC(=O)CC(CC(=O)[O-])C(=O)[O-])CC[C@]4(C)C3CC[C@@]21C.N.N.[Pt+4] (stereo not given in full) | > 100 µM | > 100 µM
CC(C)C(=O)/C=C/c1ccc(Cl)cc1Cl | 28.1 µM | 
OCCCN=C1N=C(Cl)/C(=C\c2ccccc2)N1 | > 100 µM | 
COc1cc2c(cc1OC)C(Cc1cc(Br)c(OC)c(OC)c1)=[N+](C)CC2 | > 100 µM | 
Nc1ccc(Cc2ccc(N)c(C(=O)O)c2)cc1C(=O)O | > 100 µM | 
COC(=O)C1=C(C(=O)OC)N(c2ccncc2)C(c2ccco2)=CC1c1ccccc1[N+](=O)[O-] (stereo not given) | 23.2 µM | 
CSc1ccc(NC(=O)CCl)cc1 | > 10 µM | 
C[C@]12O[C@@]3(C)O[C@@]3(C)[C@]3(C)O[C@]3(C)[C@@]1(C)O2 | > 100 µM | 
O=C(CC(=O)c1cccc2ccccc12)C(=O)Nc1nccs1 | > 100 µM | 
CCN(CC)CCC(CNc1c(C)cnc2cc(Cl)ccc12)c1ccc(Cl)c(Cl)c1 (stereo not given) | 11.6 µM | 1.95 µM
C#CCn1c2c(c3ccccc3c1=O)C(=O)c1ccccc1-2 | 62.6 µM | 
CC(O)/C=C/C1OC(=O)CC1Nc1ccc(C=O)cc1 (stereo not given) | > 100 µM | 
Cc1ccc([N+](=O)[O-])cc1NC(=O)/C(CC(=O)c1sc(C(N)=S)nc1C)=N\N | > 100 µM | 
COc1ccccc1C(=O)Nc1ccc(Cl)c(C(=O)OC(C)C)c1 | > 100 µM | 

SMILES | TGI | GI50
COc1cc(-c2cn(-c3ccc(F)cc3)c(=O)[nH]2)cc(OC)c1OC | > 100 µM | > 100 µM
N#CC(C#N)[C@@H]1CCC=C(Sc2ccccc2)[C@H]1Sc1ccccc1 | 18.9 µM | 
COc1ccc(C2S/C(=C\c3ccc([N+](=O)[O-])cc3)C(=O)N2NC(=O)Cc2ccccc2)cc1 (stereo not given) | > 100 µM | 
CC(C)(C)CC(C)(C)c1cc2c(O)c(c1)Cc1cc(C(C)(C)CC(C)(C)C)cc(c1O)Cc1cc(C(C)(C)CC(C)(C)C)cc(c1O)Cc1cc(C(C)(C)CC(C)(C)C)cc(c1O)Cc1cc(C(C)(C)CC(C)(C)C)cc(c1O)Cc1cc(C(C)(C)CC(C)(C)C)cc(c1O)Cc1cc(C(C)(C)CC(C)(C)C)cc(c1O)Cc1cc(C(C)(C)CC(C)(C)C)cc(c1O)C2 | > 100 µM | 
CCCCCC/C=C\CCCCCCCCCc1cccc(OC)c1O | > 100 µM | 
CCCCCCCCCCCCCC/C(C(=O)O)=C(\C)C(=O)O | > 100 µM | 
CC[C@H](C)C(=O)O[C@H]1C[C@@H](C)C=C2C=C[C@H](C)[C@H](CC[C@@H]3C[C@@H](O)CC(=O)O3)[C@H]21 | > 100 µM and 40.6 µM and > 30 µM | 3.74 µM and 8.28 µM
C=CCc1cccc(/C(O)=C/C(=O)/C=C/c2ccccc2Cl)c1O | 52.6 µM | 
COC(=O)[C@H]1C2CC[C@@H]3C45C[C@@H](c6ccoc6)O[C@@H]4O[C@@H](O2)C31CCC5C (stereo not given in full) | > 100 µM | 
O=C1/C(=C/c2ccc([N+](=O)[O-])cc2)Sc2scc(-c3cccc([N+](=O)[O-])c3)[n+]21 | 39.3 µM | 
Cc1c(-c2cc(-c3ccccc3)n[nH]c2=O)c2ccccc2n1C | > 100 µM | 
CCOC(=O)/C(=C/c1ccccc1)N(CC)CC | > 100 µM | 
O=C(Cn1c2c(c3ccccc31)CCCC2)N1CCOCC1 | > 100 µM | 
O=[N+]([O-])c1ccc2nc(/C=C(\O)c3ccccc3)c(NC34CC5CC(CC(C5)C3)C4)nc2c1 | > 10 µM | 
O=C1NC(=O)C23C(=O)NC(=O)C12C1C=CC3CC1 (stereo not given) | > 10 µM | 
CN(C)c1ccc(/C=C2\C[C@H]3[C@@H]4CC=C5C[C@@H](O)CC[C@]5(C)[C@H]4CC[C@]3(C)[C@H]2O)cc1 | 29 µM | 
CN1CCC(n2cnc(-c3ccc(F)cc3)c2-c2ccnc(Nc3ccccc3)n2)CC1 | > 25 µM | 7.8 µM
COc1ccc(OC)c(-c2nc3sc(C)cn3c2/C=C2\C(=O)N(C)c3ccccc32)c1 | > 100 µM | 42.2 µM
CCOC(=O)/C=C(/C(=O)OCC)n1cc(C)c(=O)[nH]c1=O | 28.8 µM | 
COc1ccc([C@H]2[C@@H]3CCc4ccccc4C3=NN2C(N)=S)cc1OC | > 100 µM | 
COc1ccc(C(=O)c2cc(C)c(OC)c(C)c2)c(OC)c1OC(=O)C(Cl)Cl | > 100 µM | 0.0697 µM
COc1ccc2c3c([nH]c2c1)[C@H](C=C(C)C)N1C(=O)[C@@H]2CCCN2C(=O)[C@@H]1C3 | > 100 µM | 
NC(=O)/C=C/c1c[nH]c2nccnc12 | 17.2 µM | 
c1cc2nnc1SCCSCCCSCCS2 | > 100 µM | 
O=CCC(O)C(O)C(O)CO (stereo not given) | > 100 µM | > 100 µM

SMILES | TGI | GI50
O=C(c1nc2ccc(Cl)cc2[nH]c1=O)C(O)c1cccc([N+](=O)[O-])c1 (stereo not given) | > 100 µM | 
CC(=O)OCCC/C(=C/c1cc2ccccc2c2ccccc12)[N+](=O)[O-] | 3.14 µM | 1.64 µM
CC12OC(C(=O)C13CCC3)C1C(=O)c3c(O)ccc(O)c3C(=O)C12 (stereo not given) | 28.7 µM | 8.66 µM
COc1cc(/C=C2\CC3C4CC[C@H]5C[C@@H](O)CC[C@]5(C)C4CC[C@]3(C)\C2=N\O)cc(OC)c1OC (stereo not given in full) | > 100 µM | 
N#CCc1ccccc1/C(C#N)=C1/OC(=N)C(c2ccccc2CC#N)C1=O (stereo not given) | > 100 µM | 
Nc1ccccc1-n1c2c(c3ccccc3c1=O)C(=O)c1ccccc1-2 | > 100 µM | 
COc1cc([N+](=O)[O-])cc2c1NC(=O)C2(C)SC (stereo not given) | > 100 µM | 
CN(CCCN1CCCC1)CCCN(C)C(=O)Cc1ccc(Cl)c(Cl)c1 | 32.4 µM | 
Nc1csc(-c2scc3c2OCCO3)c1N | > 100 µM | 
O=c1oc2ccccc2c(O)c1Cc1ccccc1Cc1c(O)c2ccccc2oc1=O | > 100 µM | 
COc1ncc(-c2ccc3ncnc(Nc4cccc(Cl)c4)c3c2)cc1NS(C)(=O)=O | 8.61 µM | 0.785 µM
CCCCCCCCCCCc1cc(=O)c2c(O)cccc2o1 | > 100 µM | 
CN(C(=O)C12C3(C(=O)O)C4C5(C(=O)O)C3C1(C(=O)O)C5C42C(=O)O)C(C)(C)C (stereo not given) | > 100 µM | 
CS(=O)(=O)Nc1ccc(NCc2cnc3ccc4[nH]cccc4c23)cc1 | > 100 µM | 
N#CC(C#N)=C(N)/C(C#N)=C/c1ccc(O)c(O)c1 | > 100 µM | 
O=C(Cc1ccccc1)N/N=C(/c1nc2ccc([N+](=O)[O-])cc2[nH]c1=O)C(O)c1ccco1 (stereo not given) | > 100 µM | 
CCOc1cc2cnc3c4cc(OC)c(OC)cc4ccc3c2cc1OC | > 100 µM | 
COc1ccc(/C=N/NC(=O)CSc2nc(-c3ccccc3)c(-c3ccccc3)[nH]2)cc1OC | 91.4 µM | 
Clc1ccc2c(NCCNc3nc(N4CCCCC4)nc4ccccc34)ccnc2c1 | 7.09 µM | 2.37 µM
CN(C)c1cccc2c(S(=O)(=O)NCCCNCCN)cccc12 | > 100 µM | 
Cc1cc(=O)[nH]c(Sc2ccc([N+](=O)[O-])cc2[N+](=O)[O-])n1 | > 92.7 µM | 
O=C1C2CCCCC2C(=O)N1n1c(Cc2ccccc2)n[nH]c1=O (stereo not given) | > 100 µM | 
NC(=S)N/N=C(/CCN1CCCC1)CC(C1=C(O)C2=CCCCC2OC1=O)c1ccccc1 (stereo not given) | > 100 µM | 
